Source: PubChem BioAssay AID588579 (National Center for Advancing Translational Sciences (NCATS), 2011)
Where “and” joins values, the source holds several entries; their conditions need not be identical. Identical values can stand only once. In all, about 400,000 compounds went through this assay and about 2,200 (0.55%) were called active. Inconclusive results, whose numbers are uncertain, are shown with a selection of clear calls. The call rests on the fitted dose curve; in most records, active means well fitted inhibition curve with a large enough effect; inconclusive means small, poorly fitted or top-dose-only effect, or another doubt; inactive means no such curve, though single readings can be large or run the other way. A potency beside an inconclusive call is a rough fit, not a confirmed value. Some compounds were tested as several samples or in several runs, with calls that do not always agree.

target: DNA polymerase kappa (Homo sapiens) (UniProt Q9UBT6); test: qHTS for Inhibitors of Polymerase Kappa; conditions: purified Pol kappa, fluorescent DNA synthesis assay, 10 min; series mostly up to 107 µM
Summary of the method: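 50 nM final substrate added after 15 min RT preincubation of 10 nM Pol kappa with compound; fluorescence read at 0 and 10 min.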
On the % scale 0 is the no-effect control and ±100 the full control effect; potency means the concentration at half of the fitted maximal effect; tags describe the fitted curve by direction and shape.

Chain of UniProt Q9UBT6 (Q9UBT6 whole entry, looked up): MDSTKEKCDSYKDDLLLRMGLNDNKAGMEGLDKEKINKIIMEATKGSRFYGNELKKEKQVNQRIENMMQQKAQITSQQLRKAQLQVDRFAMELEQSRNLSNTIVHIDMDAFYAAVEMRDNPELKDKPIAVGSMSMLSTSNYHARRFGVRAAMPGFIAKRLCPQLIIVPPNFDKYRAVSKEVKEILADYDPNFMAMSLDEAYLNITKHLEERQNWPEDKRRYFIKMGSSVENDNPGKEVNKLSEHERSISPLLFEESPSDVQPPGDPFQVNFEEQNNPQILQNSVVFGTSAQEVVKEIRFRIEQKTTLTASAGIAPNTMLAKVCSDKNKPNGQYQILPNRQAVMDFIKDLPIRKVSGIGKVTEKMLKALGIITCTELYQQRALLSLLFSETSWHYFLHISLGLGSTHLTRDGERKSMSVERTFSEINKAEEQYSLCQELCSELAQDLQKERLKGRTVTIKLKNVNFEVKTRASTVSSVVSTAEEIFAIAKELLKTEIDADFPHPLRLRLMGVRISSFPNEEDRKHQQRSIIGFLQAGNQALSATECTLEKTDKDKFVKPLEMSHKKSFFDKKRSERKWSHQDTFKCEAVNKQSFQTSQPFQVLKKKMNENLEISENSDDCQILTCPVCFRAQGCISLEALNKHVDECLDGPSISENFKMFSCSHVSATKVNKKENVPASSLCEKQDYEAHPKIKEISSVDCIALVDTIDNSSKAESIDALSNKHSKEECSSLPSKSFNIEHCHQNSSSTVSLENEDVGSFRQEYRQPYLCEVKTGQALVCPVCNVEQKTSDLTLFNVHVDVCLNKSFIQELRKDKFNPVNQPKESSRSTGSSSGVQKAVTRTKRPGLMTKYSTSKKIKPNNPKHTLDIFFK

SMILES | Potency | activity, negative = inhibition
COc1cc(C=C2C(=O)NC(=O)NC2=O)ccc1O | inactive | 
O=C1NC(=O)N(Cc2ccco2)C(=O)/C1=C\c1ccc(-c2ccc(F)cc2)o1 | inconclusive: 56.2 µM [inhibitor, partial curve, poor fit] | 
C(=C\c1ccccc1)/CN1CCN(CCOC(c2ccccc2)c2ccccc2)CC1 |  | inactive: -0.0566% [at 19.4 µM]
O=C1NC(=O)N(Cc2ccccc2)C(=O)/C1=C\C=C\c1ccco1 | active: 35.5 µM | 
N#C/C(=C\c1ccc(O)c(O)c1)C(N)=S | active: 1.41 µM and active: 794 nM and active: 126 nM | 
C[N+]1(C)C2CCC1CC(OC(=O)c1c[nH]c3ccccc13)C2 (stereo not given) | inactive | 
CCC1(O)C(=O)OCc2c1cc1n(c2=O)Cc2cc3cc(O)ccc3nc2-1 (stereo not given) | inconclusive: 56.2 µM [inhibitor, partial curve, poor fit] | 
CC12CCC3C4CCC(=O)C(O)=C4CCC3C1CCC2OC(=O)CCC1CCCC1 (stereo not given) |  | inactive: -0.736% [at 19.4 µM]
C=CCn1c(CSc2ccccc2[N+](=O)[O-])n[nH]c1=S | active: 50.1 µM | 
CC[C@]12C=CCN3CC[C@@]4(c5ccc(OC)cc5N(C)[C@H]4[C@@](O)(C(=O)OC)[C@@H]1OC(C)=O)C32 (stereo not given in full) | inactive | 
Cc1cc(/C=C2/C(=O)NC(=O)N(c3ccc(Br)cc3)C2=O)c(C)n1C | inactive | 
CCCCC/C=C\C/C=C\C/C=C\C/C=C\CCCC(=O)OCCN | inconclusive: 39.8 µM [inhibitor, partial curve, poor fit] | 
Cc1sc2ncnc(N3CCC(C(=O)Nc4ccc(C#N)c(Cl)c4)CC3)c2c1C | inconclusive: 89.1 µM [inhibitor, single point] | 
COC[C@H]([C@@H](O)[C@@H](O)C(=O)NCC[C@@H](C)c1nc(/C=C/C[C@H]2OC3(C[C@H](O)[C@H]2C)OC([C@@H](C[C@@H](O)[C@@H](C)[C@@H](O)[C@@H](C)/C=C(C)/C(C)=C/C=C/C(C)=C\C#N)OC)[C@@H](OP(=O)(O)O)C3(C)C)co1)N(C)C (stereo not given in full) | inactive | 
N#CC(C#N)=Cc1cc(O)c(O)c([N+](=O)[O-])c1 | active: 2.82 µM | 
Cc1cc(C(C#N)c2ccc(Cl)cc2)c(Cl)cc1NC(=O)c1cc(I)cc(I)c1O (stereo not given) | inconclusive: 89.1 µM [inhibitor, single point] | 
Cc1ccc(NP(=O)(Oc2ccccc2F)Oc2ccccc2F)cc1C | inconclusive: 89.1 µM [inhibitor, single point] | 
CCCCN1C(=O)/C(=C/C=C/c2ccco2)C(=O)NC1=S | active: 17.8 µM | 
CCN(CC)c1ccc(/C=C2/C(=O)NC(=O)N(Cc3ccco3)C2=O)cc1 | active: 50.1 µM | 
CN1/C(=C\C=Nc2ccccc2)C(C)(C)c2ccccc21 | inactive | 

SMILES | Potency | activity, negative = inhibition
COC(=O)C1=C(c2ccc(F)cc2OCc2ccccc2)C[C@@H]2CC[C@H]1N2C(=O)NCCCc1ccccc1 | inconclusive: 89.1 µM [inhibitor, single point] | 
COC(=O)[C@H](Cc1ccccc1)N(Cc1ccccc1)S(=O)(=O)N(Cc1ccccc1)[C@@H](Cc1ccccc1)C(=O)OC | inconclusive: 89.1 µM [inhibitor, single point] | 
CCCCCCC(C)(C)c1ccc([C@@H]2C[C@H](O)CC[C@H]2CCCO)c(O)c1 | inconclusive: 37.7 µM [inhibitor, single point] | 
COc1cc2c(cc1O)[C@H]1Cc3ccc(OC)c(O)c3CN1CC2 |  | inactive: -1.03% [at 12 µM]
COC(=O)C1=C(c2ccc(F)cc2OCc2ccccc2)C[C@@H]2CC[C@H]1N2C(=O)NCc1ccco1 | inconclusive: 79.4 µM [inhibitor, partial curve, poor fit] | 
COC[C@H]1OC(=O)c2coc3c2[C@@]1(C)C1=C(C3=O)C2CCC(=O)[C@@]2(C)C[C@H]1OC(C)=O (stereo not given in full) | inconclusive: 56.2 µM [inhibitor, partial curve, poor fit] and inconclusive: 39.8 µM [inhibitor, partial curve, poor fit] | 
C1CCC2S[C@H]3CCCCC3NC2C1 (stereo not given in full) | inactive | 
Nc1nonc1C(=O)N/N=C/c1ccc([N+](=O)[O-])o1 | inconclusive: 89.1 µM [inhibitor, single point] | 
CCOc1ccc(-c2nc3ccc(-c4nc5ccc(N6CCN(C)CC6)cc5[nH]4)cc3[nH]2)cc1 | active: 631 nM and active: 299 nM | 
CCCCC(C)C(OC(=O)CC(CC(=O)O)C(=O)O)C(CC(C)CC(O)CCCCC(O)CC(O)C(C)N)OC(=O)CC(CC(=O)O)C(=O)O (stereo not given) | active: 79.4 µM | 
Cn1cccc1/C=C1/C(=O)NC(=O)N(Cc2ccc(F)cc2)C1=O | active: 70.8 µM | 
CS(=O)c1ccc(-c2nc(-c3ccc(F)cc3)c(-c3ccncc3)[nH]2)cc1 (stereo not given) | inconclusive: 7.94 µM [inhibitor, partial curve, poor fit] | 
N#CC(C#N)=Cc1cc(O)c(O)c(O)c1 | active: 2 µM and active: 3.16 µM | 
CN1C[C@H](CNC(=O)OCc2ccccc2)C[C@@H]2c3cccc4c3c(cn4C)C[C@H]21 | inconclusive: 42.3 µM [inhibitor, partial curve, poor fit] | 
CC(CCC(=O)O)C1CCC2C3C(O)C[C@@H]4CC(O)CC[C@@]4(C)C3CC[C@@]12C (stereo not given in full) | inconclusive: 10 µM [inhibitor, partial curve, poor fit] | 
O=C(Oc1ccccc1)N1CCC2(CC1)CN(Cc1ccncc1)C2 | inconclusive: 1 µM [inhibitor, full curve, poor fit] | 
C#CCN(C)[C@@H](C)Cc1ccccc1 |  | inactive: -3.91% [at 12 µM]
O=C(O)c1cc(O)c(O)c(O)c1 | active: 10 µM | 
CCCCCCCCCOc1ccc2[nH]cc(CCN)c2c1 | inconclusive: 2.24 µM [inhibitor, partial curve, poor fit] | 
COc1ccc(C(=O)N/N=C/C23CC[C@@H](O)CC2(O)CC[C@@H]2[C@@H]3CCC3(C)C(C4=CC(=O)OC4)CCC23O)cc1 (stereo not given in full) | inconclusive: 89.1 µM [inhibitor, single point] | 
